According to the supplement of paper PMC7826260:
Some of the results follow. The data describe in vitro nicking of single-stranded DNA by Rep domains (3 µM enzyme, 1 h, 37 °C); shown is the middle of each 90-letter strand. Numbers give uncut DNA relative to the enzyme-free pool, as log2; uncut sequences lie near 0, cut ones below; no hit call is given. Reads are scaled to the total; uncut strands gain when others are lost, and binding without cutting may add a little.

Tests used:
Assay in all cases: uncleaved DNA left, log2 of reads against the no-enzyme library (log2 ratio); higher = less cleavage (more negative = more Rep cleavage of the k-mer); sequences stand for … in CTCGTCCG…ACCGGAGA
[1] = test system: T1, Rep nickase domain of Muscovy duck circovirus
T1 sequence (residues 1-111, tag not shown): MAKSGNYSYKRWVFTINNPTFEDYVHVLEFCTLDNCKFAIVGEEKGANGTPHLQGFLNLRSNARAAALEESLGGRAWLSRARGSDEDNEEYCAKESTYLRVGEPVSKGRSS
Method: (§1)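 A pool of 90-nt single-stranded DNAs with seven random bases just before the constant AC of the nick site (name = the seven bases) was cut by 3 µM recombinant His6-SUMO-tagged Rep nickase domain (300 nM DNA, 50 mM HEPES pH 8.0, 50 mM NaCl, 1 mM MnCl2, 1 h, 37 °C, three replicates). Uncut DNA was amplified and sequenced.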

[2] = test system: T2, Rep nickase domain of banana bunchy top virus
T2 sequence (residues 1-94, tag not shown): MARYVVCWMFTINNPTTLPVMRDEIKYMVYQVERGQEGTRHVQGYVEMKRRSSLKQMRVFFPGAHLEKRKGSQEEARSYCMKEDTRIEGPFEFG
Method: as §1

[3] = test system: T3, Rep nickase domain of cabbage leaf curl virus
T3 sequence (residues 1-116, tag not shown): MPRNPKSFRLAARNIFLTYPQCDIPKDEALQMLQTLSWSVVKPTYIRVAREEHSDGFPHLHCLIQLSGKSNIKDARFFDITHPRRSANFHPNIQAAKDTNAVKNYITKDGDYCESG
Method: as §1

[4] = test system: T4, Rep nickase domain of chickpea chlorotic dwarf virus
T4 sequence (residues 1-124, tag not shown): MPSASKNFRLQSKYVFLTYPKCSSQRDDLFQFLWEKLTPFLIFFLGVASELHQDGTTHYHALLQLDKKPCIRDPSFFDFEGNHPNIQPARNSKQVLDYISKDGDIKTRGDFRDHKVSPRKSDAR
Method: as §1

[5] = test system: T5, Rep nickase domain of faba bean necrotic yellows virus
T5 sequence (residues 1-98, tag not shown): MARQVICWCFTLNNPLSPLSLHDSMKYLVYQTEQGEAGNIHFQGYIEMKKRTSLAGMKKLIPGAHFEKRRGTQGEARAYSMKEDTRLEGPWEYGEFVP
Method: as §1

[6] = test system: T6, Rep nickase domain of maize striate mosaic virus
T6 sequence (residues 1-117, tag not shown): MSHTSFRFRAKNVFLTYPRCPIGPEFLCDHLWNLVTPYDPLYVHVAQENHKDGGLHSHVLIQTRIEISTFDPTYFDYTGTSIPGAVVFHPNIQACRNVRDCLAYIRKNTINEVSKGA
Method: as §1

[7] = test system: T7, Rep nickase domain of porcine circovirus 2
T7 sequence (residues 2-116, tag not shown): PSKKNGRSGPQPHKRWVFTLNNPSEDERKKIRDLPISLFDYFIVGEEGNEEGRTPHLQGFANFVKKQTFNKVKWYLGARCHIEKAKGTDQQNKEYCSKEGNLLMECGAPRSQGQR
Method: as §1

[8] = test system: T8, Rep nickase domain of tomato golden mosaic virus
T8 sequence (residues 1-124, tag not shown): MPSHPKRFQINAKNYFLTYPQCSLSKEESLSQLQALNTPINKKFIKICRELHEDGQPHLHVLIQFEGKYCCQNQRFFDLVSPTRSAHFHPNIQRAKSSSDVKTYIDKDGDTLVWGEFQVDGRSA
Method: as §1

[9] = test system: T9, Rep nickase domain of tomato yellow leaf curl virus
T9 sequence (residues 1-136, tag not shown): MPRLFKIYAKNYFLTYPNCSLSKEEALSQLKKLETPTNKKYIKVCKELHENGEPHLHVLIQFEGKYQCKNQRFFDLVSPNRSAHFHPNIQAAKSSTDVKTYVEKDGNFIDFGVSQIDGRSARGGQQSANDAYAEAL
Method: as §1

[10] = test system: T10, Rep nickase domain of wheat dwarf virus
T10 sequence (residues 1-137, tag not shown): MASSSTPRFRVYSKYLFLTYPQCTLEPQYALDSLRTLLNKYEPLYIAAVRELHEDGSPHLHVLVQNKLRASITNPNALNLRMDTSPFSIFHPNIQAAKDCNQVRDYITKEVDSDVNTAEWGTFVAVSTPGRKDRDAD
Method: as §1

| Sequence | uncleaved DNA left (log2) [1] | uncleaved DNA left (log2) [2] | uncleaved DNA left (log2) [3] | uncleaved DNA left (log2) [4] | uncleaved DNA left (log2) [5] | uncleaved DNA left (log2) [6] | uncleaved DNA left (log2) [7] | uncleaved DNA left (log2) [8] | uncleaved DNA left (log2) [9] | uncleaved DNA left (log2) [10] |
| --- | --- | --- | --- | --- | --- | --- | --- | --- | --- | --- |
| CTCATGG | -0.0344 | -0.0131 | -0.0996 | 0.317 | -0.0115 | -0.437 | 0.125 | 0.0106 | -0.00677 | 0.0222 |
| TTGGGCA | 0.167 | 0.169 | 0.738 | 1.33 | 0.11 | 1.33 | 0.179 | 0.137 | 0.138 | 0.139 |
| TCGTTTG | 0.0298 | -0.0465 | -0.292 | -0.443 | 0.0526 | -0.928 | -0.058 | -0.0733 | -0.0451 | -0.0401 |
| ATGAAGA | 0.0401 | 0.0151 | -0.339 | -0.442 | 0.0704 | -1.12 | 0.0763 | 0.0189 | -0.0263 | -0.0773 |
| CTAACCG | 0.0121 | -0.0208 | -0.73 | -0.983 | 0.11 | -0.883 | 0.144 | -0.0416 | -0.0621 | -0.128 |
| TGCTTAC | 0.0678 | -0.0146 | 0.161 | -1.08 | -0.0463 | 0.251 | -0.0329 | 0.0435 | -0.0872 | -0.0693 |
| CAGGATG | 0.345 | 0.219 | 0.261 | 0.877 | 0.336 | 0.35 | 0.322 | 0.375 | 0.155 | 0.293 |
| AACGAAC | -0.0572 | -0.289 | -0.304 | -0.146 | -0.16 | -0.68 | -0.137 | -0.116 | -0.132 | -0.0112 |
| GTTGTGG | -0.0769 | -0.0971 | -0.0731 | 0.103 | -0.105 | -0.316 | -0.00359 | 0.0129 | 0.0498 | -0.0889 |
| GCGACGC | 0.0167 | -0.00368 | 0.112 | 0.731 | -0.0814 | 1.26 | 0.038 | -0.0361 | -0.114 | -0.0239 |
| TATGGCC | 0.142 | 0.0637 | 0.0474 | 0.136 | 0.0688 | -0.504 | 0.156 | 0.0321 | -0.0312 | 0.143 |
| CCTCTGC | -0.153 | -0.397 | -0.617 | -0.959 | -0.132 | -1.23 | -0.1 | -0.31 | -0.174 | -0.327 |
| TCTTGGC | 0.0643 | -0.0838 | -0.277 | -0.618 | -0.0881 | -1.22 | 0.0696 | -0.0766 | -0.112 | -0.171 |
| AACGATC | 0.199 | -0.0953 | 0.0805 | 0.0313 | 0.0342 | -0.0975 | 0.0908 | -0.0605 | -0.126 | 0.117 |
| CTTATGT | -0.00811 | -0.00711 | -0.0633 | -0.436 | 0.0151 | -0.826 | -0.214 | -0.153 | 0.109 | 0.0224 |
